The list shows a part of the results.
Legend:
Assay in all cases: glycan array binding signal (z-score within array); higher = stronger binding
Details in all cases: glycan notation: IUPAC condensed, linker removed
[1] = target: Gal(b1-4)GlcNAc(b1-2)Man(a1-3)[Gal(b1-4)GlcNAc(b1-2)Man(a1-6)]Man(b1-4)GlcNAc(b1-4)[Fuc(a1-6)]GlcNAc
Method in brief: (§1)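 From the Consortium for Functional Glycomics database, 3228 arrays were curated, keeping only those whose protein sequence was available. Binding is given as a within-array Z-score averaged across arrays sharing a protein sequence and across linkers. Negative Z-scores can be read as non-binding.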

[2] = target: Gal(b1-4)GlcNAc(b1-2)Man(a1-3)[Gal(b1-4)GlcNAc(b1-2)Man(a1-6)][Gal(b1-4)GlcNAc(b1-4)]Man(b1-4)GlcNAc(b1-4)[Fuc(a1-6)]GlcNAc
Method in brief: as §1

[3] = target: Gal(b1-4)GlcNAc(b1-2)Man(a1-3)[Gal(b1-4)GlcNAc(b1-2)Man(a1-6)][GlcNAc(b1-4)]Man(b1-4)GlcNAc(b1-4)[Fuc(a1-6)]GlcNAc
Method in brief: as §1

[4] = target: Gal(b1-4)GlcNAc(b1-2)Man(a1-3)[GlcNAc(b1-2)Man(a1-6)]Man(b1-4)GlcNAc(b1-4)GlcNAc
Method in brief: as §1

[5] = target: Gal(b1-4)GlcNAc(b1-2)Man(a1-3)[GlcNAc(b1-4)][Gal(b1-4)GlcNAc(b1-2)Man(a1-6)]Man(b1-4)GlcNAc(b1-4)GlcNAc
Method in brief: as §1

[6] = target: Gal(b1-4)GlcNAc(b1-2)Man(a1-3)[Man(a1-6)]Man(b1-4)GlcNAc(b1-4)GlcNAc
Method in brief: as §1

[7] = target: Gal(b1-4)GlcNAc(b1-2)Man(a1-6)Man(b1-4)GlcNAc(b1-4)GlcNAc
Method in brief: as §1

[8] = target: Gal(b1-4)GlcNAc(b1-2)Man(a1-6)[GlcNAc(b1-2)Man(a1-3)]Man(b1-4)GlcNAc(b1-4)GlcNAc
Method in brief: as §1

[9] = target: Gal(b1-4)GlcNAc(b1-2)Man(a1-6)[Man(a1-3)]Man(b1-4)GlcNAc(b1-4)GlcNAc
Method in brief: as §1

[10] = target: Gal(b1-4)GlcNAc(b1-2)[Gal(b1-4)GlcNAc(b1-4)]Man(a1-3)[Gal(b1-4)GlcNAc(b1-2)Man(a1-6)]Man(b1-4)GlcNAc(b1-4)GlcNAc
Method in brief: as §1

[11] = target: Gal(b1-4)GlcNAc(b1-2)[Gal(b1-4)GlcNAc(b1-4)]Man(a1-3)[Gal(b1-4)GlcNAc(b1-2)[Gal(b1-4)GlcNAc(b1-6)]Man(a1-6)]Man(b1-4)GlcNAc(b1-4)GlcNAc
Method in brief: as §1

[12] = target: Gal(b1-4)GlcNAc(b1-2)[Gal(b1-4)GlcNAc(b1-4)]Man(a1-3)[GlcNAc(b1-4)][Gal(b1-4)GlcNAc(b1-2)Man(a1-6)]Man(b1-4)GlcNAc(b1-4)GlcNAc
Method in brief: as §1

[13] = target: Gal(b1-4)GlcNAc(b1-2)[Gal(b1-4)GlcNAc(b1-4)]Man(a1-3)[GlcNAc(b1-4)][Gal(b1-4)GlcNAc(b1-2)[Gal(b1-4)GlcNAc(b1-6)]Man(a1-6)]Man(b1-4)GlcNAc(b1-4)GlcNAc
Method in brief: as §1

[14] = target: Gal(b1-4)GlcNAc(b1-2)[Gal(b1-4)GlcNAc(b1-6)]Man(a1-6)[Gal(b1-4)GlcNAc(b1-2)Man(a1-3)]Man(b1-4)GlcNAc(b1-4)GlcNAc
Method in brief: as §1

[15] = target: Gal(b1-4)GlcNAc(b1-2)[Gal(b1-4)GlcNAc(b1-6)]Man(a1-6)[Gal(b1-4)GlcNAc(b1-2)Man(a1-3)]Man(b1-4)GlcNAc(b1-4)[Fuc(a1-6)]GlcNAc
Method in brief: as §1

[16] = target: Gal(b1-4)GlcNAc(b1-2)[Gal(b1-4)GlcNAc(b1-6)]Man(a1-6)[GlcNAc(b1-4)][Gal(b1-4)GlcNAc(b1-2)Man(a1-3)]Man(b1-4)GlcNAc(b1-4)GlcNAc
Method in brief: as §1

[17] = target: Gal(b1-4)GlcNAc(b1-2)[Gal(b1-4)GlcNAc(b1-6)]Man(a1-6)[GlcNAc(b1-4)][Gal(b1-4)GlcNAc(b1-2)[Gal(b1-4)GlcNAc(b1-4)]Man(a1-3)]Man(b1-4)GlcNAc(b1-4)[Fuc(a1-6)]GlcNAc
Method in brief: as §1

[18] = target: Gal(b1-4)GlcNAc(b1-3)Gal(b1-3)GalNAc
Method in brief: as §1

[19] = target: Gal(b1-4)GlcNAc(b1-3)Gal(b1-3)GlcNAc
Method in brief: as §1

B1: PX14343B-bfa-546-20-546 (Bacteroides fragilis) (protein)
chain: CDLERYPLTDLSEETFWNSESNAELALTSLYRGSLTDGVEYNPSDWWSYHGMIMMEHLSDNAFDRRGENNPFFKISSGNLTADNAFIKRYWETSYKRIGYCNRFLVGIQNSSESEKKTRMIAEARFLRATQYFYLASYFKNVPLVENVLTGEEANNVTKTSQADILKWCVTEFTAAAADLPRFSAIPAGEAGRACKQAALAFLGRTCMLQKDWKSGAKAFHDIMELGDNAINANYQELFYPSTGTSNKENIFYIQYLENYLGTGLPQHALSAKDGGWSLVNPAADLYESYEFKDGTPFSYDDPRYDPSNLGKDRDPRLDYTIYYNGAIFMGTEYKMSPDYSAAKKEKLDYTSEASRTGFMMRKYFEESTPINDVQSANGLTPVIRYAEVLLGYLECLVEDNQTITQGILDETINAVRGRASVNMPPVTEVTPAKLREIVRHERRIELAMEGIRYWDIMRWGIAHEVLSQKIWGAPYPGSTQYATTTKEVDPTGNYRWYVGKRAFRNPTDYTWPIPQSEQNINPNLRD
- glycan array binding signal (z-score) [1]: -0.125
- glycan array binding signal (z-score) [2]: -0.113
- glycan array binding signal (z-score) [3]: -0.117
- glycan array binding signal (z-score) [4]: -0.128
- glycan array binding signal (z-score) [5]: -0.122
- glycan array binding signal (z-score) [6]: -0.12
- glycan array binding signal (z-score) [7]: -0.118
- glycan array binding signal (z-score) [8]: -0.125
- glycan array binding signal (z-score) [9]: -0.129
- glycan array binding signal (z-score) [10]: -0.126
- glycan array binding signal (z-score) [11]: -0.125
- glycan array binding signal (z-score) [12]: -0.12
- glycan array binding signal (z-score) [13]: -0.081
- glycan array binding signal (z-score) [14]: -0.128
- glycan array binding signal (z-score) [15]: -0.104
- glycan array binding signal (z-score) [16]: -0.134
- glycan array binding signal (z-score) [17]: -0.123
- glycan array binding signal (z-score) [18]: -0.111
- glycan array binding signal (z-score) [19]: -0.126
